This experiment has as its target T1, GFP-tagged Munc13-4 (UniProt Q70J99).
T1 sequence: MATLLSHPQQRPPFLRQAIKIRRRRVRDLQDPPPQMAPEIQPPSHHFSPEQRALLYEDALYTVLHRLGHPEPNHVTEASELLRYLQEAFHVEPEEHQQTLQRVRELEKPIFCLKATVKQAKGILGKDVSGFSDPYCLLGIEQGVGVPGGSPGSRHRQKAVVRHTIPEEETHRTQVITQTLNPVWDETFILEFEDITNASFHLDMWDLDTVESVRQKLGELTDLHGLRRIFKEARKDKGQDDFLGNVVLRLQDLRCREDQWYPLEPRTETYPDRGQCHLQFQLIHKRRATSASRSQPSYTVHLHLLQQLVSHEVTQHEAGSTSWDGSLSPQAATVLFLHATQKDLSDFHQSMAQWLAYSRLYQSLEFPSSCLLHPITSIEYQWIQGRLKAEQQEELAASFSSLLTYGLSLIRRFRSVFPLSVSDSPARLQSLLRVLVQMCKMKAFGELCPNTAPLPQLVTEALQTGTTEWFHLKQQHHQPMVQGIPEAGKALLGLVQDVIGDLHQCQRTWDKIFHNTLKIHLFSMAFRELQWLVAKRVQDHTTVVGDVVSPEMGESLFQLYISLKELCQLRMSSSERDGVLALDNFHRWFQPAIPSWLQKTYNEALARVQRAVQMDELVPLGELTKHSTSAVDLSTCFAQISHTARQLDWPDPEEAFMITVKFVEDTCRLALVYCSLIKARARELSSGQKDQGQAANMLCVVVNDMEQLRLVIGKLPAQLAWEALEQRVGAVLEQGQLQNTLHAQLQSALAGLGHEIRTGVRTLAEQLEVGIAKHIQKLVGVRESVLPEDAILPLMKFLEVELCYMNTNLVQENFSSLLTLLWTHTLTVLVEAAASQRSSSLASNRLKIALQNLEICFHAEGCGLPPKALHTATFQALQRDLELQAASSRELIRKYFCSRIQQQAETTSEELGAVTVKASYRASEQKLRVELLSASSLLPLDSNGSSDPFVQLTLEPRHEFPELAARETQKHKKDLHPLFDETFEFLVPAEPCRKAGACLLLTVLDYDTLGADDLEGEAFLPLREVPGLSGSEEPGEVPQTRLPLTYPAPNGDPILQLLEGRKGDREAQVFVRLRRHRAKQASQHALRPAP
Nature of the experiment: co-IP; lysates of BON cells expressing GFP or GFP-Munc13-4 precipitated with GFP nanobodies; western blotting of the pull-downs with antibodies to the partners. On the technique in general: In western blotting, separated proteins are transferred to a membrane and probed.

The chains behind the UniProt entries cited, without tags or fusion partners.
UniProt P63027: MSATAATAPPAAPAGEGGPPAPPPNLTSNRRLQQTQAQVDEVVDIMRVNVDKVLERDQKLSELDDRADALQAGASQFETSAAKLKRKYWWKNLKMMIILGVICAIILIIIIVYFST
UniProt P56962: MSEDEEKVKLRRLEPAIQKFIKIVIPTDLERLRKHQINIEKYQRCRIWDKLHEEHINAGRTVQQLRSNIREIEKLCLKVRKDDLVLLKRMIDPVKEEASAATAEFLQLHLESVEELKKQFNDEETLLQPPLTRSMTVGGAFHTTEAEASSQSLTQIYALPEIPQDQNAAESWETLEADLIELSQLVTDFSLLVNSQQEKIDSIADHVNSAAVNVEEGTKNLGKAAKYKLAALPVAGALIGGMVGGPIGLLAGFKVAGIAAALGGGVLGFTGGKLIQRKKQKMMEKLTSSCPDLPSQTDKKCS
UniProt Q9Y4G2: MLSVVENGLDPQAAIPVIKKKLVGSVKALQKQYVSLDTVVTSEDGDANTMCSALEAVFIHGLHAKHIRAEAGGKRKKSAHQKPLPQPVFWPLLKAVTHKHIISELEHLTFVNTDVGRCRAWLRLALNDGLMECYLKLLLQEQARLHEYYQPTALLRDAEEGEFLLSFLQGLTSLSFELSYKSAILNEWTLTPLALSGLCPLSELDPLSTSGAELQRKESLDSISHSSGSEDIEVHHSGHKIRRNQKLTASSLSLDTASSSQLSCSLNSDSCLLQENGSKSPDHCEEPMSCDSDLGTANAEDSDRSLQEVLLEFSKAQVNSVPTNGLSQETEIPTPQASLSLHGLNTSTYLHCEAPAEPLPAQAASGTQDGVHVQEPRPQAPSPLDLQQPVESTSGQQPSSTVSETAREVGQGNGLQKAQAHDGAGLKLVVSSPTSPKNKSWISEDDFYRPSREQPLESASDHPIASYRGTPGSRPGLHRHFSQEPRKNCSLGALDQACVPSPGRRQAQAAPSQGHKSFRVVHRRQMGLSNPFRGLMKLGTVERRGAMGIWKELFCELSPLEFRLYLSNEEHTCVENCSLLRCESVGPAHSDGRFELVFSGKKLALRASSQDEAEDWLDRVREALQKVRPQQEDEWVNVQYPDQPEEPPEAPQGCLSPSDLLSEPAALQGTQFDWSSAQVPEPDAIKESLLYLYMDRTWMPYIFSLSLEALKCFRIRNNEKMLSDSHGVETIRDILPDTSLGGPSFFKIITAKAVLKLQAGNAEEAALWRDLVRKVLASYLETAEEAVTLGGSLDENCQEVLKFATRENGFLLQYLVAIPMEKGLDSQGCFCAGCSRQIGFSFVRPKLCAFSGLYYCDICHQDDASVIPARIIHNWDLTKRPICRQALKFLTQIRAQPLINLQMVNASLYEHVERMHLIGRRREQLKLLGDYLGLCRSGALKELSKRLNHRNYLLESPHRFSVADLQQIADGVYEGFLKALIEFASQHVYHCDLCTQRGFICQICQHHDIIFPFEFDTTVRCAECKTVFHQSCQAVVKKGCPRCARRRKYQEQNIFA
UniProt Q15836: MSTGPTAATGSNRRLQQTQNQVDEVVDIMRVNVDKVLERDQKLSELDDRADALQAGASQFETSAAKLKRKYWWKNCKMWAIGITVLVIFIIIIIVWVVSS

Results are given in words; binding and its absence hold for the method and conditions named. In cells and extracts the contact can be indirect. Some binding calls cover weakened binding; strength is not graded here. Where a sequence is shown, tags or fusion partners need not be part of it.

With “VAMP2 (vesicle-associated membrane protein 2) (from UniProt P63027 1-116)”, the binding entry was “binds”.
The result for STX17 (from UniProt P56962 1-302) reads “no binding”.
The entry for PLEKHM1 (from UniProt Q9Y4G2 1-1056) is “binds”; for VAMP3 (from UniProt Q15836 1-100) it is “no binding”.

The values are drawn from paper PMC12425082.
